Experimental data reported in patent US20250002557A1 (SUZHOU LIGHT FERRY BIOMED, published 2025).
Several values for one entry are separate records, joined by “and”; a condition that tells them apart may be missing. Equal entries are not always repeated.

Assays:
VEGF-D [1] = target: T1, VEGF-D (UniProt O43915 89-205, limits assumed); test: blocking ELISA, VEGF-D-His to coated VEGFR3-Fc
T1 construct: Bought reagent
T1 sequence (looked up): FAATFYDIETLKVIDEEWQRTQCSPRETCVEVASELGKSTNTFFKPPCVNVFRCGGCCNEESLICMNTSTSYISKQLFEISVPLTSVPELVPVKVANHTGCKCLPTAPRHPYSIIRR
Method: (§1) During the blocking period, each recombinant receptor molecule was serially diluted from high to low concentrations, mixed evenly with 10 ng/well of VEGF-C or 500 ng/well of VEGF-D (both labeled with His-tag), allowing for incubation at room temperature for 30 minutes. […] The plates were washed with PBST, then TMB was added for color development, terminated with 5% hydrochloric acid solution, and finally, the OD values at 450 nm were read using a microplate reader.

PDGF-CC = target: T2, PDGF-CC (UniProt Q9NRA1 235-345); test: SPR, PDGF coupled to CM5 chip, trap in flow
PDGF-CC, sequence (Q9NRA1 235-345): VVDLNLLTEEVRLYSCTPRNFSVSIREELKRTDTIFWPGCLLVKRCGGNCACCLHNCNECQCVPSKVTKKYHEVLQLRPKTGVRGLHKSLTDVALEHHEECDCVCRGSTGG
T2 construct: Bought reagent
From the text: (§2) Nevertheless, it was found in the preliminary detection experiments that PDGF family molecules (purchased from R&D Systems Inc.) were prone to produce non-specific binding in the chip, resulting in a pseudo-elevation in measured values, such that the detection could not be completed. Therefore, PDGF-AA, PDGF-AB, PDGF-BB and PDGF-CC molecules were separately loaded through a coupling reaction on a CM5 chip, followed by influx of the recombinant receptor molecules, thus effectively eliminating the impact of non-specific binding on affinity determination.

PDGF-AA = target: T3, PDGF-AA (UniProt P04085 87-211); test: SPR, PDGF coupled to CM5 chip, trap in flow
T3 construct: Bought reagent
From the text: as §2

PDGF-AB = target: T4, PDGF-AB (UniProt P04085 87-211; P01127 82-190); test: SPR, PDGF coupled to CM5 chip, trap in flow
PDGF-AB, sequence (P01127 82-190, chain 2 of 2, other chains not shown): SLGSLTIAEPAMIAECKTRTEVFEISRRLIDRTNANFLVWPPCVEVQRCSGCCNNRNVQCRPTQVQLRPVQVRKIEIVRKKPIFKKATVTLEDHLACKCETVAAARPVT
T4 construct: Bought reagent
From the text: as §2

VEGF-A165 [2] = target: T5, VEGF-A165 (UniProt P15692-4 27-191); test: ELISA, coated VEGF-A 165, anti-human Fc-HRP
T5 construct: Bought reagent
T5 sequence (looked up): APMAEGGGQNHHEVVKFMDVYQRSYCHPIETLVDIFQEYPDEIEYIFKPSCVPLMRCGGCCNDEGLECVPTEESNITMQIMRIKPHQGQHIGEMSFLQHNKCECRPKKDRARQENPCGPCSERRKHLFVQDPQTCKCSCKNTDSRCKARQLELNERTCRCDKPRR

VEGF-D [3] = target: T1, VEGF-D; test: blocking ELISA, VEGF-D-His to coated VEGFR2-Fc; row head prints uM, ng/ml row implies nM
Method: as §1, with “100” for “10”, “or” for “or 500 ng/well of”, “then anti-polyhistidine secondary antibody conjugated with horseradish peroxidase was added to allow for incubation and binding at room temperature for 1 hour. Then the plates were washed with PBST,” for “then”

VEGF-C [4] = target: T6, VEGF-C (UniProt P49767 112-227, limits assumed); test: blocking ELISA, VEGF-C-His to coated VEGFR3-Fc
T6 construct: Bought reagent
T6 sequence (looked up): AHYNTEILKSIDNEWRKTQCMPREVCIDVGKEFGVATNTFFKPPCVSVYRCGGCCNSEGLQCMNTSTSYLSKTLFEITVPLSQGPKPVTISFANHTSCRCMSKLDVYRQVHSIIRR
Method: as §1

VEGF-A 121 [5] = target: T7, VEGF-A 121 (UniProt P15692-9 27-147); test: blocking ELISA, VEGF-A 121-His to coated VEGFR2-Fc
T7 construct: Bought reagent
T7 sequence (looked up): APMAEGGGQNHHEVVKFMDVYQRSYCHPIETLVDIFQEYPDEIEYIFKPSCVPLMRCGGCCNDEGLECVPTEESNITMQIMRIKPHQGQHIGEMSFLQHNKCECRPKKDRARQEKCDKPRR

PDGF-BB = target: T8, PDGF-BB (UniProt P01127 82-190); test: SPR, PDGF coupled to CM5 chip, trap in flow; row label printed PDGF-BR
PDGF-BB, sequence (P01127 82-190): as the sequence (P01127 82-190, chain 2 of 2, other chains not shown) above
T8 construct: Bought reagent
From the text: as §2

VEGF-D [6] = target: T1, VEGF-D; test: blocking ELISA: His-VEGF-D premixed with sample, binding to coated VEGFR2-Fc read with anti-His-HRP
Method: as §1, with “100” for “10”, “or” for “or 500 ng/well of”, “then anti-polyhistidine secondary antibody conjugated with horseradish peroxidase was added to allow for incubation and binding at room temperature for 1 hour. Then the plates were washed with PBST,” for “then”

VEGF-A165 [7] = target: T5, VEGF-A165; test: blocking ELISA, VEGF-A 165-His to coated VEGFR2-Fc; row head prints uM, paragraph 129 and ng/ml row give nM
VEGF-A165 [8] = target: T5, VEGF-A165; test: ELISA binding to VEGF-A165, absorbance 450 nm
VEGF-C [9] = target: T6, VEGF-C; test: ELISA binding to VEGF-C, absorbance 450 nm
VEGF-D [10] = target: T1, VEGF-D; test: blocking ELISA, VEGF-D-His to coated VEGFR2-Fc
Method: as §1, with “100” for “10”, “or” for “or 500 ng/well of”, “then anti-polyhistidine secondary antibody conjugated with horseradish peroxidase was added to allow for incubation and binding at room temperature for 1 hour. Then the plates were washed with PBST,” for “then”

VEGF-C [11] = target: T6, VEGF-C; test: ELISA, coated VEGF-C, anti-human Fc-HRP
VEGF-A165 [12] = target: T5, VEGF-A165; test: blocking ELISA, VEGF-A 165-His to coated VEGFR2-Fc
VEGF-A 121 [13] = target: T7, VEGF-A 121; test: ELISA, coated VEGF-A 121, anti-human Fc-HRP
VEGF-C [14] = target: T6, VEGF-C; test: blocking ELISA, VEGF-C-His to coated VEGFR2-Fc
Method: as §1, with “100” for “10”, “or” for “or 500 ng/well of”, “then anti-polyhistidine secondary antibody conjugated with horseradish peroxidase was added to allow for incubation and binding at room temperature for 1 hour. Then the plates were washed with PBST,” for “then”

VEGF-C [15] = target: T6, VEGF-C; test: blocking ELISA: His-VEGF-C premixed with sample, binding to coated VEGFR2-Fc read with anti-His-HRP
Method: as §1, with “100” for “10”, “or” for “or 500 ng/well of”, “then anti-polyhistidine secondary antibody conjugated with horseradish peroxidase was added to allow for incubation and binding at room temperature for 1 hour. Then the plates were washed with PBST,” for “then”

VEGF-A165 [16] = target: T5, VEGF-A165; test: blocking ELISA: His-VEGF-A165 premixed with sample, binding to coated VEGFR2-Fc read with anti-His-HRP
VEGF-C [17] = target: T6, VEGF-C; test: blocking ELISA, VEGF-C-His to coated VEGFR3-Fc; row head prints uM, ng/ml row implies nM
Method: as §1

[18] = target: T9, VEGF-A (isoform not given) (UniProt P15692-4 27-191, limits assumed); test: SPR Biacore T200, trap captured on Protein A chip, antigen in flow
T9 construct: May be the same reagent as VEGF-A165
T9 sequence (looked up): T5 sequence (looked up)

VEGF-C [19] = target: T6, VEGF-C; test: as above
VEGF-D [20] = target: T1, VEGF-D; test: as above
VEGF-D [21] = target: T1, VEGF-D; test: ELISA binding to VEGF-D, OD450
VEGF-A165 [22] = target: T5, VEGF-A165; test: blocking ELISA, VEGF-A165 to VEGFR2 (Example 13)
VEGF-D [23] = target: T1, VEGF-D; test: blocking ELISA, VEGF-D to VEGFR2 (Example 13)
VEGF-B = target: T10, VEGF-B (UniProt P49765-2 22-188, limits assumed); test: ELISA, VEGF-B coated, anti-human Fc-HRP, OD450
T10 construct: Bought reagent
T10 sequence (looked up): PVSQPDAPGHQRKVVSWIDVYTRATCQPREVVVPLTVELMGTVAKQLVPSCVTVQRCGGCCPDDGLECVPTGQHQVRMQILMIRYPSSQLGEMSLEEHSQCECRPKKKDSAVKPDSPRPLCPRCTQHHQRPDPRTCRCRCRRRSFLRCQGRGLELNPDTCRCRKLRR

PIGF = target: T11, PIGF (UniProt P49763-2 19-149, limits assumed); test: ELISA, PlGF coated, anti-human Fc-HRP, OD450
T11 construct: Bought reagent; also called PLGF; placental growth factor
T11 sequence (looked up): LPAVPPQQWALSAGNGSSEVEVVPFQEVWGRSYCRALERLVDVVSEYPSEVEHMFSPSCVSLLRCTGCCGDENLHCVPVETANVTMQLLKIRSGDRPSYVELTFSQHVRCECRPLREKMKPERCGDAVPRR

VEGF-C [24] = target: T6, VEGF-C; test: blocking ELISA, VEGF-C to VEGFR2 (Example 13)
VEGF-A165 [25] = target: T5, VEGF-A165; test: blocking ELISA, VEGF-A165 to VEGFR1 (Example 13)
VEGF-D [26] = target: T1, VEGF-D; test: blocking ELISA, VEGF-D to VEGFR3 (Example 13)

B1: LFV-B Recombinant receptor molecule (Fc fusion)
chain: YVQDYRSPFIASVSDQHGVVYITENKNKTVVIPCLGSISNLNVSLCARYPEKRFVPDGNRISWDSKKGFTIPSYMISYAGMVFCEAKINDESYQSIMYIVVVVGYRIYDVVLSPSHGIELSVGEKLVLNCTARTELNVGIDFNWEYPSSKHQHKKLVNRDLKTQSGSEMKKFLSTLTIDGVTRSDQGLYTCAASSGLMTKKNSTFVRVHEKGPG[here human IgG1 Fc without letters]
notes: expressed in HEK293 or CHO cells
EC50 (VEGF-D [1]): 0.122 µg/mL and 1.22 nM
Kd (PDGF-CC): 22.3 nM
Kd (PDGF-AA): 26.3 nM
koff (PDGF-AA): 0.000153 s⁻¹
kon (PDGF-AA): 5790 M⁻¹ s⁻¹
Kd (PDGF-AB): 1.59 nM
koff (PDGF-AB): 0.000192 s⁻¹
kon (PDGF-AB): 121000 M⁻¹ s⁻¹
EC50 (VEGF-A165 [2]): 0.00927 µg/mL and 0.093 nM
EC50 (VEGF-D [3]): 270 nM
EC50 (VEGF-C [4]): 0.115 µg/mL
EC50 (VEGF-A 121 [5]): 0.763 µg/mL and 7.63 nM
koff (PDGF-BB): 0.00047 s⁻¹
kon (PDGF-BB): 48200 M⁻¹ s⁻¹
EC50 (VEGF-D [6]): 1.13 nM
EC50 (VEGF-A165 [7]): 4670 nM
EC50 (VEGF-A165 [8]): 0.139 nM
EC50 (VEGF-C [9]): 0.228 nM
EC50 (VEGF-D [10]): 0.0268 µg/mL
EC50 (VEGF-C [11]): 0.16 nM and 0.0162 µg/mL
EC50 (VEGF-A165 [12]): 0.467 µg/mL
EC50 (VEGF-A 121 [13]): 0.311 nM and 0.0311 µg/mL
EC50 (VEGF-C [14]): 2.08 µg/mL
EC50 (VEGF-C [15]): 7.91 nM
EC50 (VEGF-A165 [16]): 2.79 nM
EC50 (VEGF-C [17]): 1150 nM
Kd [18]: 0.0093 nM
koff [18]: 0.000105 s⁻¹
kon [18]: 1.13e+07 M⁻¹ s⁻¹
Kd (VEGF-C [19]): 0.00897 nM
koff (VEGF-C [19]): 3.88e-05 s⁻¹
kon (VEGF-C [19]): 4.32e+06 M⁻¹ s⁻¹
Kd (VEGF-D [20]): 2.28 nM
koff (VEGF-D [20]): 3.44e-05 s⁻¹
kon (VEGF-D [20]): 15100 M⁻¹ s⁻¹
EC50 (VEGF-D [21]): 10.4 nM

B2: LFV-N Recombinant receptor molecule (Fc fusion)
chain: SPFIASVSDQHGVVYITENKNKTVVIPCLGSISNLNVSLCARYPEKRFVPDGNRISWDSKKGFTIPSYMISYAGMVFCEAKINDESYQSIMYIVVVVGYRIYDVVLSPSHGIELSVGEKLVLNCTARTELNVGIDFNWEYPSSKHQHKKLVNRDLKTQSGSEMKKFLSTLTIDGVTRSDQGLYTCAASSGLMTKKNSTFVRVHEKGGGGSGRPFVEMYSEIPEIIHMTEGRELVIPCRVTSPNITVTLKKFPLDTLIPDGKRIIWDSRKGFIISNATYKEIGLLTCEATVNGHLYKTNYLTHRQTNTIIGPG[here human IgG1 Fc without letters]
notes: expressed in CHO cells
EC50 (VEGF-A165 [22]): 1.87 nM
EC50 (VEGF-D [23]): 1.79 nM
EC50 (VEGF-B): 1.53 nM
EC50 (PIGF): 0.25 nM
EC50 (VEGF-C [24]): 27.3 nM
EC50 (VEGF-A165 [25]): 3.3 nM
EC50 (VEGF-D [26]): 2.31 nM
